{
  "source": "PubChem BioAssay AID903",
  "about": "(National Center for Advancing Translational Sciences (NCATS), 2007)",
  "note": "The campaign covered roughly 55,000 compounds. About 340 (0.62%) were called active. Inconclusive means that the source gave no clear call. Such entries were picked first, then a sample of the others. Calls come from the whole dose curve; as a rule, active = well fitted cell-killing curve with a large enough effect; inconclusive = small, poorly fitted or top-dose-only effect; inactive = no such curve, though single readings can be large or run the other way. Potencies beside an inconclusive call are fits to weak or partial responses and may not hold up. Potency is the fitted concentration of half-maximal effect; tags give direction and shape of the fitted curve.",
  "data": [
    {"experiment": "qHTS Screen for Compounds that Selectively Target Cancer Cells with p53 Mutations: Cytotoxicity of p53 Null Cells at the Permissive Temperature; note: nearly all actives have a fitted effect of over 55% in size;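 for activity change, negative = cytotoxicity: 0% = DMSO only and -100% = full killing by 100 µM tamoxifen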", "details": "H1299-neo p53 null cells, ATP luminescence, 24 h, 32C; series mostly up to 46.1 µM; activity change, negative = cytotoxicity: at the top concentration", "outline": "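H1299-neo (p53 null) cells, 600/well, treated 24 h at 32C with compound up to 46 uM; ATPlite luminescence viability, normalized to DMSO and 100 uM tamoxifen; AC50 by Hill fit.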", "values": [
      {"smiles": "Cc1cc(C)c(C(N)=O)c(Nc2cccc3ccccc23)n1", "Potency": "inconclusive: 25.1 µM [cytotoxic, single point]"},
      {"smiles": "CCOC(=O)c1cc2c(=O)n3ccccc3nc2n(CCCOC)c1=NC(=O)c1c(-c2ccccc2Cl)noc1C", "activity change, negative = cytotoxicity": "inactive: 7.19%"},
      {"smiles": "CS(=O)(=O)c1ncc(Cl)c(C(=O)Nc2c(C(=O)c3ccc(Cl)cc3)oc3ccccc23)n1", "activity change, negative = cytotoxicity": "inactive: -0.323%"},
      {"smiles": "Clc1cccc(-n2ncc3c(NCCCN4CCOCC4)ncnc32)c1", "activity change, negative = cytotoxicity": "inactive: -8.8%"},
      {"smiles": "CCCC(=O)Nc1ccccc1C(=O)OCc1cc(=O)n2nc(C(C)C)sc2n1", "Potency": "inconclusive: 5.62 µM [cytotoxic, single point]"},
      {"smiles": "Cc1ccc(C)c(NS(=O)(=O)c2ccc3oc(=O)c4ncn(C)c4c3c2)c1", "Potency": "inconclusive: 12.6 µM [cytotoxic, single point]"},
      {"smiles": "CCN(C(=O)c1ccco1)c1nnc(-c2ccc(OC)cc2)s1", "Potency": "inconclusive: 2.51 µM [cytotoxic, full curve, poor fit]"},
      {"smiles": "CCOc1ccc2c(c1)c(=O)c(S(=O)(=O)c1ccc(CC)cc1)cn2Cc1cccc(Cl)c1", "Potency": "inconclusive: 25.1 µM [cytotoxic, single point]"},
      {"smiles": "COc1cc(/C=C2\\S/C(=N/S(=O)(=O)c3ccc(C)cc3)NC2=O)c([N+](=O)[O-])cc1OC", "activity change, negative = cytotoxicity": "inactive: -20.7%"},
      {"smiles": "Cc1nc(-c2cccc(F)c2)sc1CCNC(=O)C(=O)Nc1ccc2c(c1)OCCO2", "activity change, negative = cytotoxicity": "inactive: -10.7%"},
      {"smiles": "COc1ccc(NC(=O)CSc2nc(-c3ccc(OC)cc3)cc(=O)[nH]2)cc1", "Potency": "inconclusive: 3.16 µM [cytotoxic, full curve]"},
      {"smiles": "O=S(=O)(Nc1cccc(-c2ccc(N3CCOCC3)nn2)c1)c1cc(C(F)(F)F)ccc1Cl", "Potency": "inconclusive: 7.94 µM [cytotoxic, partial curve]"},
      {"smiles": "Cc1ccc(-n2nc3c(=O)n(C(C)C(=O)O)nc(C)c3c2C)cc1", "note": "(centres undefined)", "activity change, negative = cytotoxicity": "inactive: 2.99%"},
      {"smiles": "Cc1cc(C)cc(OCC(=O)Nc2cccc(-c3nc4ccccc4[nH]3)c2)c1", "Potency": "inconclusive: 35.5 µM [cytotoxic, single point]"},
      {"smiles": "CCOc1ccc2nc(N3CCCC(C(=O)NCCc4ccc(SC)cc4)C3)sc2c1", "note": "(centres undefined)", "activity change, negative = cytotoxicity": "inactive: -6.88%"},
      {"smiles": "O=C(Nc1ccccc1C(F)(F)F)c1noc2c1CCCCC2", "Potency": "active: 10 µM"},
      {"smiles": "Cc1csc(=NC(=O)c2ccccc2)n1C", "Potency": "inconclusive: 17.8 µM [cytotoxic, single point]"},
      {"smiles": "O=S(=O)(NCc1ccccc1)c1ccc2[nH]c3c(c2c1)CCCCC3", "Potency": "inconclusive: 15.8 µM [cytotoxic, single point]"},
      {"smiles": "O=C(Nc1ccccc1C(=O)O)c1cccc(S(=O)(=O)N2CCCC2)c1", "Potency": "inconclusive: 15.8 µM [cytotoxic, single point]"},
      {"smiles": "CCC(=O)Nc1cc(-c2nc3cc(C)cc(C)c3o2)ccc1C", "Potency": "inconclusive: 12.6 µM [cytotoxic, partial curve]"},
      {"smiles": "CCOC(=O)c1ccc2c(c1)sc1nc(-c3ccc(OCC)cc3)cn12", "Potency": "inconclusive: 3.98 µM [cytotoxic, full curve, poor fit]"},
      {"smiles": "COc1cc(C(=O)Nc2ccccc2OCc2cc(=O)n3c(C)csc3n2)cc(OC)c1OC", "Potency": "inconclusive: 5.62 µM [cytotoxic, single point]"},
      {"smiles": "Cc1cccc2sc(N(Cc3cccnc3)C(=O)CCS(=O)(=O)c3ccccc3)nc12", "Potency": "inconclusive: 25.1 µM [cytotoxic, single point]"},
      {"smiles": "CC1(C)CC(=O)c2sc(NC(=O)c3cccs3)nc2C1", "Potency": "active: 2.24 µM"},
      {"smiles": "COc1ccccc1CNC(=O)CCCn1c(=O)c2ccccc2n(CC(=O)Nc2ccc(C)cc2Cl)c1=O", "Potency": "inconclusive: 25.1 µM [cytotoxic, single point]"},
      {"smiles": "Cc1ccccc1Cn1c(=O)n(CC2CCC(C(=O)N3CCC(C)CC3)CC2)c(=O)c2sccc21", "note": "(centres undefined)", "Potency": "inconclusive: 31.6 µM [cytotoxic, single point]"},
      {"smiles": "CCCCOc1ccc(/C=C/C(=O)Nc2ccc([N+](=O)[O-])cc2C)cc1", "Potency": "inconclusive: 8.91 µM [cytotoxic, partial curve, poor fit]"},
      {"smiles": "CCOc1ccccc1CNC(=O)c1ccc(Cn2c(SCc3ccccc3)nc3cccnc32)cc1", "Potency": "inconclusive: 12.6 µM [cytotoxic, partial curve]"},
      {"smiles": "COc1ccc(Oc2nc3c(C)cccn3c(=O)c2/C=C(\\C#N)c2nc3ccccc3[nH]2)cc1", "activity change, negative = cytotoxicity": "inactive: 1.59%"},
      {"smiles": "COc1ccc(C(=O)c2sc(Nc3cc(Cl)ccc3C)nc2N)cc1OC", "Potency": "inconclusive: 25.1 µM [cytotoxic, single point]"},
      {"smiles": "CSc1ccc(CCNc2ncnc3onc(-c4ccc(Cl)cc4)c23)cc1", "activity change, negative = cytotoxicity": "inactive: 2.2%"},
      {"smiles": "Cc1cc(C)c2sc(N3CCN(C(=O)C4CC4)CC3)nc2c1", "Potency": "inconclusive: 15.8 µM [cytotoxic, partial curve]"},
      {"smiles": "Cc1cccc(NS(=O)(=O)c2ccc3nc(-c4ccccc4)[nH]c3c2)c1C", "Potency": "inconclusive: 35.5 µM [cytotoxic, single point]"},
      {"smiles": "Clc1ccccc1Nc1ncnc2c1nc1n2CCCCC1", "Potency": "inconclusive: 20 µM [cytotoxic, single point]"},
      {"smiles": "O=C(Nc1cccc(Br)c1)c1cc(-c2ccc3c(c2)OCCO3)on1", "Potency": "inconclusive: 5.01 µM [cytotoxic, partial curve]"},
      {"smiles": "CCN(Cc1ccccc1)C(=O)c1cc2ccc3cccnc3c2[nH]1", "Potency": "inconclusive: 10 µM [cytotoxic, partial curve]"},
      {"smiles": "CCOc1ccccc1NC(=O)c1cc2ccc3cccnc3c2[nH]1", "activity change, negative = cytotoxicity": "inactive: -6.25%"},
      {"smiles": "CCN(CC)CCOC(=O)c1ccc(NC(=O)CSc2cc(=O)n(CC)c3ccccc23)cc1", "activity change, negative = cytotoxicity": "inactive: 4.27%"},
      {"smiles": "Cc1ccc(-c2nc3cccnc3s2)cc1NC(=O)Cc1ccccc1", "Potency": "inconclusive: 3.98 µM [cytotoxic, partial curve]"},
      {"smiles": "CCc1ccc(NC(=O)CCn2cnc3ccccc3c2=O)cc1", "Potency": "inconclusive: 3.16 µM [cytotoxic, single point]"},
      {"smiles": "CCOC(=O)C(Cc1ccccc1)C(=O)Nc1cccc(C)c1", "note": "(centres undefined)", "Potency": "inconclusive: 7.08 µM [cytotoxic, partial curve, poor fit]"},
      {"smiles": "Clc1ccccc1Cc1cn2cc(-c3ccccc3)nc2s1", "Potency": "inconclusive: 2.82 µM [cytotoxic, full curve, poor fit]"},
      {"smiles": "CCCCCn1c(=N)n(CC(O)COc2cccc(C)c2)c2ccccc21", "note": "(centres undefined)", "Potency": "inconclusive: 22.4 µM [cytotoxic, partial curve]"},
      {"smiles": "CCCN(CCC)CC(O)Cn1cc(/C=C/C(=O)c2ccc(OCC)cc2)c2ccccc21", "note": "(centres undefined)", "Potency": "inconclusive: 25.1 µM [cytotoxic, single point]"},
      {"smiles": "O=C1c2ccccc2-c2onc3c(NCCO)cc(NC4CCCCC4)c1c23", "Potency": "inconclusive: 20 µM [cytotoxic, single point]"},
      {"smiles": "Cc1ccc(Cl)cc1NC(=O)CN1C(=O)C(C)(C)c2cc(S(=O)(=O)N3CCCCC3)ccc21", "Potency": "inconclusive: 3.55 µM [cytotoxic, single point]"},
      {"smiles": "CCOC(=O)c1ccc(NC(=O)c2nn(C)c3c2COc2ccccc2-3)cc1", "activity change, negative = cytotoxicity": "inactive: 6.35%"},
      {"smiles": "CSc1ncc(Cl)c(C(=O)Nc2ccc(S(=O)(=O)Nc3nccc(C)n3)cc2)n1", "Potency": "inconclusive: 10 µM [cytotoxic, partial curve]"},
      {"smiles": "CCOc1ccc(-c2nnc(SCC(=O)NCc3ccccc3Cl)o2)cc1", "Potency": "inconclusive: 15.8 µM [cytotoxic, partial curve]"},
      {"smiles": "O=C(NCc1ccccc1)C(=O)NCC(c1ccco1)S(=O)(=O)c1ccc(Cl)cc1", "note": "(centres undefined)", "activity change, negative = cytotoxicity": "inactive: 7.23%"},
      {"smiles": "CCOc1cc(OCC)cc(C(=O)Nc2cccc(-c3nc4ccccc4[nH]3)c2)c1", "Potency": "inconclusive: 35.5 µM [cytotoxic, single point]"},
      {"smiles": "CCOC(=O)N1CCc2c(sc3c2c(=O)n(Cc2ccccc2)c(=O)n3Cc2cccc(C)c2)C1", "Potency": "inconclusive: 3.16 µM [cytotoxic, single point]"},
      {"smiles": "COc1ccc2c(c1)c(=O)c(S(=O)(=O)c1ccc(F)cc1)cn2Cc1ccccc1Cl", "Potency": "inconclusive: 35.5 µM [cytotoxic, single point]"},
      {"smiles": "O=C(Cn1ncc2c1-c1ccccc1OC2)N1CCN(c2ccccc2)CC1", "Potency": "inconclusive: 17.8 µM [cytotoxic, partial curve, poor fit]"},
      {"smiles": "Cc1cccn2cc(-c3cccc(NC(=O)C(C)C)c3)nc12", "Potency": "inconclusive: 15.8 µM [cytotoxic, single point]"},
      {"smiles": "COc1ccc(NC(=O)c2ccc(NC(=O)N3CCSc4ncccc43)cc2)cc1", "Potency": "inconclusive: 7.94 µM [cytotoxic, partial curve]"},
      {"smiles": "Cc1ccc(C(C)C)c(OCc2ccc(C(=O)N/N=C/c3ccc(O)cc3O)cc2)c1", "Potency": "inconclusive: 5.01 µM [cytotoxic, single point]"},
      {"smiles": "COc1ccc(NC(=O)c2cc3ccccc3o2)c(OC)c1", "Potency": "inconclusive: 15.8 µM [cytotoxic, single point]"},
      {"smiles": "COc1ccccc1CNc1nc2c(S(=O)(=O)c3ccc(C)c(C)c3)nnn2c2ccc(Cl)cc12", "activity change, negative = cytotoxicity": "inactive: -4.7%"},
      {"smiles": "CC(C)NC(=O)c1ccc(Cn2c(SCc3ccc(F)cc3)nc3cccnc32)cc1", "Potency": "inconclusive: 5.01 µM [cytotoxic, full curve]"},
      {"smiles": "O=C(COc1ccccc1Cl)Nc1ccc(-c2nc3ccccc3s2)cc1", "Potency": "inconclusive: 31.6 µM [cytotoxic, single point]"},
      {"smiles": "Cc1c(C(=O)NCc2cccnc2)oc2ccc(S(=O)(=O)N3CCCCC3)cc12", "Potency": "inconclusive: 11.2 µM [cytotoxic, partial curve]"},
      {"smiles": "CC(C)(C)C1CCc2c(sc(NC(=O)Cn3nnc(-c4ccccc4Cl)n3)c2C#N)C1", "note": "(centres undefined)", "activity change, negative = cytotoxicity": "inactive: 3.25% [at 9.22 µM]"},
      {"smiles": "COc1ccc(-c2nc(SCC(=O)Nc3ccc4c(c3)OCCO4)c(-c3ccc(F)cc3)[nH]2)cc1", "Potency": "inconclusive: 12.6 µM [cytotoxic, partial curve]"}
    ]}
  ]
}
